Assay results from PMC12136788.
Some of the results follow.

T1: UNK ZnF1-6 (called full-length) (human, UniProt Q9C0B0 30-357)
T1 sequence: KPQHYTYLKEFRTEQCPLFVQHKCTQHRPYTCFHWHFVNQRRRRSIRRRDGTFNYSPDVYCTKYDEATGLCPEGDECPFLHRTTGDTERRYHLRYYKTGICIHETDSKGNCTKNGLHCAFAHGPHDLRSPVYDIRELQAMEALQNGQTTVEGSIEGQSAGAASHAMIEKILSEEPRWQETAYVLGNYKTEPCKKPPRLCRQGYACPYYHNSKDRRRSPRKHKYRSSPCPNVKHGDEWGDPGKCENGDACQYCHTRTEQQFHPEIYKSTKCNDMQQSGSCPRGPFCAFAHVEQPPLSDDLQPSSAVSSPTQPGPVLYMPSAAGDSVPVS

B1: chr5:91369659:91369760:-|3pUTR|ENSG00000113369|msi1|FALSE|bound_elsewhere (ssRNA)
RNA: GGGAGUUCUACAGUCCGACGAUCUCAGCAUUUUCCAAGGUACCAAGUGUACUUAUUUUGUUGUUGUUGUUGUUGUUGUAUUUUAGAAGGAAUUCAGCUCUGAUGUUUUUAAAGAAAACCAGCAUCUCUGAUGUUGCAACAUACCAACAGAGGAUUGAGCAUCA
B2: chr16:67098774:67098826:+|CDS_3pUTR|ENSG00000067955|msi1_unk|FALSE|overlapping (ssRNA)
RNA: GGGAGUUCUACAGUCCGACGAUCAGACCCUAGUCCUGGUUCCAAUUUAGGUGGUGGUGAUGACCUCAAACUUCGUUAAUUAAUAGCACAGCAGAUGUGUGCUGCCCAUCUUUACAUACACAUUGCUUCUAGUUGGCAGAAAUACAACAGAGGAUUGAGCAUCA
B3: ENSG00000092871:stop:overlap|stop_codon|ENSG00000092871|stop_codon|NA|stop_codon (ssRNA)
RNA: GGGAGUUCUACAGUCCGACGAUCCAGGCUUGGAACCAAGCUGCAAGUCCUGUGGGGCUCACUUUGCAAACACGGCCAGGAAGUAGUGCUCAAGAUCACAUAGUUAUUAAAUGACAGAGCCGGGAUUCAAACCCAGGUCCUUGACAACAGAGGAUUGAGCAUCA
B4: chr11:77702383:77702481:-|5pUTR_CDS|ENSG00000048649|msi1_unk|total|mutant (ssRNA)
RNA: GGGAGUUCUACAGUCCGACGAUCAUUUUCCGAGGAACAGAAAGAAAGUGAAAAGAUGAAAAGUGAGGAGCAGCCUAUGGAUUCCGAAAACCGUUCUACAGCCAAUGUUCCCGAAGAGACUACUGUGAAAAAAGAAAAAGAAGACAACAGAGGAUUGAGCAUCA
B5: ENSG00000120708:stop:overlap|stop_codon|ENSG00000120708|stop_codon|NA|stop_codon (ssRNA)
RNA: GGGAGUUCUACAGUCCGACGAUCCCCAGAGGUCUGUGCGACUAGCCCCUGUCUAUCAAAAGUUAUUAGAGAGGAUGAAGCAUUAGCUUGAAGCACUACAGGAGGAAUGCACCACGGCAGCUCUCCGCCAAUUUCUCUCAGAUUCAACAGAGGAUUGAGCAUCA
B6: chr19:37127587:37127689:+|CDS|ENSG00000197050|unk|FALSE|unique (ssRNA)
RNA: GGGAGUUCUACAGUCCGACGAUCUAUGCAUGUAAGGAAUGUGGGAAGGCCUUUACUCAAAGCUCACAACUUAUUUUACAUCAUAGAAUUCAUACUGGUGAAAAACCAUAUAAAUGUGAAGAAUGUGGGAAAGCCUUUAUUCGUCAACAGAGGAUUGAGCAUCA
B7: chrX:103676501:103676735:-|CDS|ENSG00000123562|unk|FALSE|unique (ssRNA)
RNA: GGGAGUUCUACAGUCCGACGAUCGGAGGUUAAAGUGAAGAUUCCUGAAGAAUUAAAACCAUGGCUUGUUGAGGACUGGGACUUAGUUACCAGGCAGAAGCAGCUGUUUCAACUCCCUGCCAAGAAAAAUGUAGAUGCAAUUCUCAACAGAGGAUUGAGCAUCA
B8: chr19:8065921:8066260:-|CDS|ENSG00000142449|control|control|control (ssRNA)
RNA: GGGAGUUCUACAGUCCGACGAUCCCUCUCACACCUGGGCCGGGCCGAGCGCAUCCUGGAGCUCCGGCCGGCCCUGGAGGGUCUAGAGGGCCGGAUCCGCUACGUCAUCGUCCGCGGAAACGAGCAAGGUUUCUUUCGCAUGCACAACAGAGGAUUGAGCAUCA
B9: chr10:17315694:17315795:-|3pUTR|ENSG00000148488|unk|total|mutant (ssRNA)
RNA: GGGAGUUCUACAGUCCGACGAUCCUUCUUCCUCCCUGUCCAUCCCACCCUCGUCCCCAGAAAAUUCCUAAUCUGUUUUUCUACCGACAUUUACAUUUUUACACUACCGACUGUUUACAUUUUUCCGAAUUUUAUAUAAAUGGACAACAGAGGAUUGAGCAUCA
B10: ENSG00000198589:be:win_6651|CDS|ENSG00000198589|bound_else_gene|NA|bound_elsewhere_windowed (ssRNA)
RNA: GGGAGUUCUACAGUCCGACGAUCUCUCAACACGAUAGCAGGACGGAGUUAUAAUGACUUAAAUCAGUAUCCAGUGUUUCCUUGGGUCAUCACUAAUUAUGAAUCAGAAGAACUGGAUCUUACCUUGCCCACCAACUUCAGAGACAACAGAGGAUUGAGCAUCA
B11: chr10:128108355:128108456:-|CDS|ENSG00000148773|msi1|total|mutant (ssRNA)
RNA: GGGAGUUCUACAGUCCGACGAUCAGUGGACACUCCAACAAGCACAAAGCAAUGGCCUAAGAGAAGUCUCAGGAAAGCAGAUGCCGAGGAAGAAUUCUCCGCACUCAGGAAACUAACACCAUCAGCAGGGAAAGCCAUGCUUACCAACAGAGGAUUGAGCAUCA
B12: chr17:57974666:57974767:-|CDS|ENSG00000136451|msi1|total|mutant (ssRNA)
RNA: GGGAGUUCUACAGUCCGACGAUCGAGCAUGAGAAGUCCAGUAAAUGUUUCAAGUGCAGUUAACAUAACCAGCCCAAUGAACACCGGGCAUCCUGUAACUAUAACCAGUCCAUUAUCCAUGACCUCUCCUUUAACACUCACUACCAACAGAGGAUUGAGCAUCA
B13: chr12:114680981:114681101:-|CDS|ENSG00000135111|unk|total|mutant (ssRNA)
RNA: GGGAGUUCUACAGUCCGACGAUCUAAAGUGAGAUGUUCUGGGCUGGAUAAAAAAGCCAAAUACAUUUUAUUGAUGGACAUUACCGCUGCUGAUGACUGUCGUUAUAAAUUUCACAAUUCUCGGUGGAUGGUGGCUGGUAAGGCCAACAGAGGAUUGAGCAUCA
B14: chr3:52829118:52829279:-|CDS|ENSG00000055955|control|control|control (ssRNA)
RNA: GGGAGUUCUACAGUCCGACGAUCGUGGACUCCAGGGUCUCAUCCCGAUUUGCCCACACGGUCGUCACCAGCCGAGUGGUCAAUAGGGCCAAUACUGUGCAGGAGGCCACCUUCCAGAUGGAGCUGCCCAAGAAAGCCUUCAUCCAACAGAGGAUUGAGCAUCA
B15: chr7:139306712:139306813:+|3pUTR|ENSG00000157741|msi1|FALSE|bound_elsewhere (ssRNA)
RNA: GGGAGUUCUACAGUCCGACGAUCAUCUGGGGCUUGCCCUUGGAUUUCACUUGUUAAACACCCUCAAACUUAAAAGAAGAAAAUAGAUCUCCAGCUGGUGAAAAUUUUGUGCCCCAAAUAAUAUAUUAAUCCAAGUCUACCAAGCAACAGAGGAUUGAGCAUCA
B16: chr3:15254852:15254953:-|3pUTR|ENSG00000131370|msi1|total|mutant (ssRNA)
RNA: GGGAGUUCUACAGUCCGACGAUCAAACUGUUAAUUCUGUCACAGCCUGUAUAUUUCCGUCAUUUGUAAAUCUCUUCAUACAACCGUGACUUCUUUUUUGACUGAUACAGUAUCUUAAUUACAAGGUUAUUUUGUACUUGUCUUCAACAGAGGAUUGAGCAUCA
B17: chr1:16399343:16399521:-|CDS|ENSG00000187144|control|control|control (ssRNA)
RNA: GGGAGUUCUACAGUCCGACGAUCGCUCUGCCCACAGCUGGACAAGAAGAUGGUCCGUAGGCAGCCGAGCAACCACUAUGCACUAGACCAGUGCACACCCCCUGGCCUGGAUCCUGACAUCCGCAGCCCCUUCUUCCAGUCAGGCAACAGAGGAUUGAGCAUCA
B18: chr6:107870184:107870285:-|3pUTR|ENSG00000025796|msi1|total|mutant (ssRNA)
RNA: GGGAGUUCUACAGUCCGACGAUCUAAUAUUUCCUAUAAAAGGGUGAAAGCAGUUUCUUUCUCUAUAACCUCAAUCACCAGUUCCGUGAGAGCCUUUCUUGGCAGGCAGGAGGCAGUGUCACUGAGGAUUUUUUUCAUUUACUUCAACAGAGGAUUGAGCAUCA
B19: ENSG00000198589:be:win_4951|CDS|ENSG00000198589|bound_else_gene|NA|bound_elsewhere_windowed (ssRNA)
RNA: GGGAGUUCUACAGUCCGACGAUCUCUCCGGAAACCAAAAAUGAUAGAGGAAAUGACUUGGACACUAAGGCUACACCGUCAGUUUCAGUUUCAAAAAACGUCAAUGUGAAAGACAUUCUCCGAAGCUUGGUUAACAUACCAGCACAACAGAGGAUUGAGCAUCA
B20: ENSG00000075711:stop:overlap|stop_codon|ENSG00000075711|stop_codon|NA|stop_codon (ssRNA)
RNA: GGGAGUUCUACAGUCCGACGAUCCAGAAAAAAUAAUGGAAAUAAAGCUCAUUAAAGGUCCUAAAGGUAUGUGGUCUUGGGUUUAGCAUUGCUGGAGGUGUUGGAAAUCAGCAUAUUCCUGGGGAUAAUAGCAUCUAUGUAACCCAACAGAGGAUUGAGCAUCA
B21: chr3:128462549:128463245:-|CDS|ENSG00000179407|control|control|control (ssRNA)
RNA: GGGAGUUCUACAGUCCGACGAUCCGGGAGUUUUUUGGUGGCCUGGACCCUUUCUCCUUUGAGUUCUGGGACAGCCCAUUCAAUAGUGACCGUGGUGGCCGGGGCCAUGGCCUGAGGGGGGCCUUCUCGGCAGGCUUUGGAGAACAACAGAGGAUUGAGCAUCA
B22: ENSG00000111696:stop:overlap|stop_codon|ENSG00000111696|stop_codon|NA|stop_codon (ssRNA)
RNA: GGGAGUUCUACAGUCCGACGAUCCCUGGUCAGAAAGGCCCCCCACCUUCGGAACCCCUCUCCUGCAGGAGGCCCAGGCCAAGUAGCCAAGGGCAAAAACUAGAAACUGUAACUGCCCCUGAUUGGGCAGGCAUGAUGGGGUUGCAACAGAGGAUUGAGCAUCA

biological target: T1, UNK ZnF1-6 (called full-length); experiment: nsRBNS (natural sequence RNA bind-n-seq); RBNS binding buffer (assumed for nsRBNS): 25 mM Tris pH 7.5, 150 mM KCl, 3 mM MgCl2, 0.01% Triton X-100, 500 ug/ml BSA, 20 U/ml SUPERase-In, 4 C; UNK is unkempt and MSI1 is Musashi-1; names of the RNAs are library labels; protein concentration not given here; high values mean tight binding

How did the binding signal turn out when B1 was run?
The binding signal was 0.378 enrichment R.

How did the binding signal turn out when B2 was run?
Its binding signal is 0.938 enrichment R.

With B3 as the binder, how does the binding signal read?
The binding signal was 0.31 enrichment R.

How did the binding signal turn out when B4 was run?
The binding signal was 0.679 enrichment R.

B5 was tested. Which binding signal did it give?
Its binding signal is 0.853 enrichment R.

With B6 as the binder, how does the binding signal read?
Its binding signal is 0.478 enrichment R.

For B7, which binding signal is on record?
The binding signal was 0.808 enrichment R.

B8 was tested. Which binding signal did it give?
Its binding signal is 0.389 enrichment R.

With B9 as the binder, how does the binding signal read?
Its binding signal is 1.81 enrichment R.

Which binding signal does the source give for B10 here?
The binding signal was 0.356 enrichment R.

Which binding signal does the source give for B11 here?
The binding signal was 0.623 enrichment R.

Which binding signal does the source give for B12 here?
Its binding signal is 0.617 enrichment R.

Which binding signal does the source give for B13 here?
Its binding signal is 0.617 enrichment R.

B14 was tested. Which binding signal did it give?
Its binding signal is 0.721 enrichment R.

With B15 as the binder, how does the binding signal read?
Its binding signal is 1.25 enrichment R.

With B16 as the binder, how does the binding signal read?
Its binding signal is 0.429 enrichment R.

How did the binding signal turn out when B17 was run?
Its binding signal is 0.685 enrichment R.

How did the binding signal turn out when B18 was run?
Its binding signal is 0.72 enrichment R.

B19 was tested. Which binding signal did it give?
Its binding signal is 0.333 enrichment R.

With B20 as the binder, how does the binding signal read?
Its binding signal is 0.524 enrichment R.

How did the binding signal turn out when B21 was run?
Its binding signal is 1.07 enrichment R.

How did the binding signal turn out when B22 was run?
Its binding signal is 0.762 enrichment R.
